In test [1] the target is GDF8 (human, UniProt O14793 267-375). Nature of the test: cell-based or functional assay.
Test [2] concerns the target GDF11 (human, UniProt O95390 299-407). The test is described as follows: cell-based or functional assay.
In test [3] the target is T1, Activin A (R&D Systems, #338-AC) (human, UniProt P08476 311-426).
T1 construct: Bought protein; also called inhibin-βA dimer; homodimer of two βA subunits
T1 sequence: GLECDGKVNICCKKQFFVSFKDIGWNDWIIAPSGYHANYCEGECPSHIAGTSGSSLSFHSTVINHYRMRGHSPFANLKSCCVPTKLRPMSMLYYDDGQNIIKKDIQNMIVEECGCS
Nature of the test: SPR blocking: 5 nM Activin A + 0.94 nM binder over hActRIIB-hFc (Control 4) surface. The procedure: (§1) The binding signal (RU) was measured at 150 seconds after the start of the injection, and this signal was subtracted by the measured RU value for a negative control reference surface to determine the specific binding signal.

Test [4] has as its target T1, Activin A (R&D Systems, #338-AC). The test is described as follows: SPR blocking: 5 nM Activin A + 0.00 nM binder over hActRIIB-hFc (Control 4) surface. As to the method:
as §1

Test [5] shares this target. Nature of the test: SPR blocking: 5 nM Activin A + 15 nM binder over hActRIIB-hFc (Control 4) surface. As to the method: as §1
For test [6] the target is unchanged. The test is described as follows: SPR blocking: 5 nM Activin A + 30 nM binder over hActRIIB-hFc (Control 4) surface. As to the method:
as §1

Test [7] has the same target. Nature of the test: SPR blocking: 5 nM Activin A + 1.88 nM binder over hActRIIB-hFc (Control 4) surface. As to the method: as §1
Test [8] shares this target. Nature of the test: SPR blocking: 5 nM Activin A + 3.75 nM binder over hActRIIB-hFc (Control 4) surface.
Test [9] has the same target. Nature of the test: SPR blocking: 5 nM Activin A + 7.50 nM binder over hActRIIB-hFc (Control 4) surface. As to the method:
as §1

For test [10] the target is unchanged. The test is described as follows: SPR blocking: 5 nM Activin A + 60 nM binder over hActRIIB-hFc (Control 4) surface. As to the method:
as §1

In test [11] the target is T2, Activin A (human, UniProt P08476 311-426).
T2 construct: Homodimer of two betaA subunits; bought (R&D Systems #338-AC); also called inhibin-betaA dimer
T2 sequence: T1 sequence
The test is described as follows: SPR, 5 nM Activin A + 3.75 nM binder over Follistatin-288 surface. As to the method: as §1

Test [12] addresses T2, Activin A. The test is described as follows: SPR, 5 nM Activin A + 60 nM binder over Follistatin-288 surface. As to the method: as §1
Test [13] deals with T2, Activin A. The test is described as follows: SPR, 5 nM Activin A + 7.50 nM binder over hActRIIA-hFc surface. As to the method:
as §1

For test [14], the target named is T2, Activin A. The test is described as follows: SPR, 5 nM Activin A + 30 nM binder over hActRIIA-hFc surface. The procedure:
as §1

Test [15] has as its target T2, Activin A. Nature of the test: SPR, 5 nM Activin A + 0 nM binder (no inhibitor) over Follistatin-288 surface. The procedure:
as §1

The target in test [16] is T2, Activin A. Nature of the test: SPR, 5 nM Activin A + 3.75 nM binder over hActRIIA-hFc surface. The procedure:
as §1

In test [17] the target is T2, Activin A. The test is described as follows: SPR, 5 nM Activin A + 0.94 nM binder over Follistatin-288 surface. The procedure: as §1
Test [18] has as its target T2, Activin A. Nature of the test: SPR, 5 nM Activin A + 0.00 nM binder (no inhibitor) over hActRIIA-hFc surface. As to the method: as §1
For test [19], the target named is T2, Activin A. Nature of the test: SPR, 5 nM Activin A + 1.88 nM binder over hActRIIA-hFc surface. The procedure:
as §1

Test [20] deals with T2, Activin A. Nature of the test: SPR, 5 nM Activin A + 30 nM binder over Follistatin-288 surface. As to the method:
as §1

The target in test [21] is T2, Activin A. Nature of the test: SPR, 5 nM Activin A + 1.88 nM binder over Follistatin-288 surface. As to the method: as §1
Test [22] concerns the target T2, Activin A. Nature of the test: SPR, 5 nM Activin A + 60 nM binder over hActRIIA-hFc surface. As to the method: as §1
In test [23] the target is T2, Activin A. Nature of the test: SPR, 5 nM Activin A + 15 nM binder over Follistatin-288 surface. As to the method: as §1
Test [24] addresses T2, Activin A. Nature of the test: SPR, 5 nM Activin A + 0.94 nM binder over hActRIIA-hFc surface. The procedure:
as §1

In test [25] the target is T2, Activin A. Nature of the test: SPR, 5 nM Activin A + 15 nM binder over hActRIIA-hFc surface. The procedure: as §1
Test [26] has as its target T2, Activin A. Nature of the test: SPR, 5 nM Activin A + 7.5 nM binder over Follistatin-288 surface. As to the method:
as §1

Sequence of GDF11 (O95390 299-407 limits assumed): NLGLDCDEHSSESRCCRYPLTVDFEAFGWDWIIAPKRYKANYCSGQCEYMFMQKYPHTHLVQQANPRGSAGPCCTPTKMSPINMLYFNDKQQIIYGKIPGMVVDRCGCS

B1: Control 4 (Activin Type IIB receptor-Fc fusion: soluble Activin RIIB extracellular domain E23-P133 of NP_001097, Gly-Ser linker, C-terminal human IgG1 Fc) (Fc fusion)
chain: EAETRECIYYNANWELERTNQSGLERCEGEQDKRLHCYASWANSSGTIELVKKGCWLDDFNCYDRQECVATEENPQVYFCCCEGNFCNERFTHLPEAGGPEVTYEPPPTAPSG[gap - human IgG1 Fc]
Consider B1, for which the “IC50, blockade of 0.50 nM GDF8 in A204/CAGAx12-Luc reporter bioassay” value in [1] worked out at 298 pM. In addition, the “IC50, blockade of 0.40 nM GDF11 in A204/CAGAx12-Luc reporter bioassay” value in [2] was 214 pM.

B2: Control 4 (Activin Type IIB receptor-Fc fusion molecule; soluble Activin RIIB receptor extracellular domain E23-P133 of NP_001097, Gly-Ser linker, C-terminal … (Fc fusion)
chain: B1 chain
notes: also called hActRIIB-hFc; hActRIIB-Fc
For the molecule B2, the “% bound RU w/ no inhibitor” value came to 149% in [3]; 100% in [4]; 51% in test [5]; 3% in test [6]; 148% in test [7]; 144% in [8]. Besides, the “% bound RU w/ no inhibitor” value in [9] amounted to 130%; in test [10], 2%.

B3: Control 4 (Activin Type IIB receptor-Fc fusion molecule) (Fc fusion)
chain: B1 chain
notes: also called ActRIIB-hFc; hActRIIB-hFc
For the molecule B3, the “% bound RU w/ no inhibitor” value in test [11] came out at 151%; in [12], 1%; in [13], 160%; in [14], 2%; in test [15], 100%; in test [16], 231%. Besides, the “% bound RU w/ no inhibitor” value was determined as 169% in test [17]; 100% in test [18]; 266% in test [19]; 1% in [20]; 163% in test [21]; 1% in [22]. The “% bound RU w/ no inhibitor” value was 43% in [23], 276% in test [24], 51% in [25] and 120% in test [26].

B4: human ActRIIA expressed with a C-terminal human Fc tag (hActRIIA-Fc; R&D Systems, #340-R[…]) (Fc fusion, not shown: a dimerising Fc or GST)
chain: not shown
notes: Bought protein; also called hActRIIA-hFc
For B4, the “% bound RU w/ no inhibitor” value amounted to 131% in [3]; 100% in test [4]; 56% in test [5]; 5% in [6]; 129% in test [7]; 127% in [8]. For the same molecule, the “% bound RU w/ no inhibitor” value in test [9] was determined as 113%; in test [10], 5%.

B5: human ActRIIA expressed with a C-terminal human Fc tag (Fc fusion, not shown: a dimerising Fc or GST)
chain: not shown
notes: Bought reagent; also called hActRIIA-Fc; hActRIIA-hFc
B5: the “% bound RU w/ no inhibitor” value in test [11] came out at 138%; in test [12], 13%; in [13], 128%; in test [14] it was 5%; in [15], 100%; in [16], 188%. The “% bound RU w/ no inhibitor” value was determined as 156% in [17]; 100% in [18]; 222% in test [19]; 11% in test [20]; 148% in test [21]; 3% in [22]. Moreover, the “% bound RU w/ no inhibitor” value in [23] was found to be 60%; in test [24], 236%; in [25], 50%; in [26], 116%.
